Measured values published in the supplement of paper PMC10126150.
Sequences with one replicate were seen in a single cluster, so their values are uncertain.

The sequences below were run on ATP (assay: switch fluorescence ratio, 500 uM ATP over buffer (Cy3 cluster intensity, sum of 5 cycles each) (fold (ratio)); higher = stronger signal-on switching upon ATP binding; sequences stand for … in TCGTCGGCAGCGTCAGATGTGTATAAGAGACAGTTTTTTTTTTTTTTTTTTTTTTTTT…TC). Conditions: aptamer strand: ATP DNA aptamer (quencher-CACCTGGGGGAGTATTGCGGAGGAAGG + anchor), 100 nM annealed; ATP concentration: 500 uM; one replicate.
Procedure, shortened: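 Between each of five buffer/ATP cycles, the flow-cell was stripped with NaOH and re-annealed. Each cycle imaged Cy3-labelled switching-strand clusters, annealed to 100 nM quencher-labelled ATP aptamer on a modified Illumina MiSeq flow-cell, first in selection buffer and then after 15 min with 500 uM ATP at 22 °C. The fluorescence ratio is summed target-cycle over summed buffer-cycle Cy3 intensity per cluster, averaged per switch-domain sequence, with clusters outside 100-1000 RFU excluded.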
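Further: ATP exposure 15 min at 22 °C before imaging.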

**Q.** For TAGGCGAGCT, which switch fluorescence ratio is on record?
**A.** 1.05

**Q.** For TAGGCTCTCT, which switch fluorescence ratio is on record?
**A.** 1.02

**Q.** Which switch fluorescence ratio does the source give for TAGGCTGCTT here?
**A.** 0.964

**Q.** How did the switch fluorescence ratio turn out when TAGGCTTGTC was run?
**A.** 1

**Q.** TAGGGATACC was tested. Which switch fluorescence ratio did it give?
**A.** 1.3

**Q.** TAGGGATCCG was tested. Which switch fluorescence ratio did it give?
**A.** 1.02

**Q.** TAGGGCCGTT was tested. Which switch fluorescence ratio did it give?
**A.** 1

**Q.** Which switch fluorescence ratio does the source give for TAGGGCTAAT here?
**A.** 0.972

**Q.** How did the switch fluorescence ratio turn out when TAGGGGGTC was run?
**A.** 0.986

**Q.** TAGGGTCCGT was tested. Which switch fluorescence ratio did it give?
**A.** 1

**Q.** With TAGGGTCTG as the sequence, how does the switch fluorescence ratio read?
**A.** 1.01

**Q.** How did the switch fluorescence ratio turn out when TAGGTAAAAT was run?
**A.** 1.02

**Q.** Which switch fluorescence ratio does the source give for TAGGTAACTC here?
**A.** 0.954

**Q.** Which switch fluorescence ratio does the source give for TAGGTAGACG here?
**A.** 0.94

**Q.** For TAGGTAGCCC, which switch fluorescence ratio is on record?
**A.** 1.02

**Q.** With TAGGTATTG as the sequence, how does the switch fluorescence ratio read?
**A.** 0.975

**Q.** Which switch fluorescence ratio does the source give for TAGGTCTCTC here?
**A.** 0.987

**Q.** With TAGGTCTTTA as the sequence, how does the switch fluorescence ratio read?
**A.** 0.965

**Q.** How did the switch fluorescence ratio turn out when TAGGTGTATC was run?
**A.** 1.05

**Q.** Which switch fluorescence ratio does the source give for TAGGTTAGAT here?
**A.** 1.03

**Q.** Which switch fluorescence ratio does the source give for TAGGTTAGG here?
**A.** 1.02

**Q.** TAGGTTCTGA was tested. Which switch fluorescence ratio did it give?
**A.** 0.98

**Q.** Which switch fluorescence ratio does the source give for TAGGTTCTGG here?
**A.** 0.978

**Q.** With TAGGTTTACC as the sequence, how does the switch fluorescence ratio read?
**A.** 1.01

**Q.** With TAGGTTTGAT as the sequence, how does the switch fluorescence ratio read?
**A.** 0.96

**Q.** How did the switch fluorescence ratio turn out when TAGTAAAAAT was run?
**A.** 0.966

**Q.** With TAGTAAAGC as the sequence, how does the switch fluorescence ratio read?
**A.** 1.04

**Q.** How did the switch fluorescence ratio turn out when TAGTAACGCT was run?
**A.** 1.02

**Q.** For TAGTAGAAAT, which switch fluorescence ratio is on record?
**A.** 0.984

**Q.** TAGTAGAT was tested. Which switch fluorescence ratio did it give?
**A.** 1.01

**Q.** For TAGTAGGATA, which switch fluorescence ratio is on record?
**A.** 0.991

**Q.** With TAGTAGTCGT as the sequence, how does the switch fluorescence ratio read?
**A.** 1

**Q.** Which switch fluorescence ratio does the source give for TAGTATACCT here?
**A.** 1.14

**Q.** Which switch fluorescence ratio does the source give for TAGTATCA here?
**A.** 1.01

**Q.** With TAGTATTGAG as the sequence, how does the switch fluorescence ratio read?
**A.** 1.03

**Q.** Which switch fluorescence ratio does the source give for TAGTCAAGGA here?
**A.** 0.972

**Q.** How did the switch fluorescence ratio turn out when TAGTCCAGTG was run?
**A.** 1.42

**Q.** TAGTCCTCAT was tested. Which switch fluorescence ratio did it give?
**A.** 1.02

**Q.** For TAGTCGTATG, which switch fluorescence ratio is on record?
**A.** 1.01

**Q.** TAGTCGTCGA was tested. Which switch fluorescence ratio did it give?
**A.** 0.999

**Q.** With TAGTCTATCC as the sequence, how does the switch fluorescence ratio read?
**A.** 0.981

**Q.** For TAGTCTGTCG, which switch fluorescence ratio is on record?
**A.** 0.961

**Q.** TAGTCTGTTT was tested. Which switch fluorescence ratio did it give?
**A.** 1.02

**Q.** Which switch fluorescence ratio does the source give for TAGTGAACGG here?
**A.** 1.05

**Q.** How did the switch fluorescence ratio turn out when TAGTGAGTCT was run?
**A.** 1.01

**Q.** Which switch fluorescence ratio does the source give for TAGTGCATAT here?
**A.** 1.01

**Q.** How did the switch fluorescence ratio turn out when TAGTGCTGCT was run?
**A.** 1.01

**Q.** Which switch fluorescence ratio does the source give for TAGTGCTGGA here?
**A.** 0.939

**Q.** TAGTGGCGCG was tested. Which switch fluorescence ratio did it give?
**A.** 1.06

**Q.** Which switch fluorescence ratio does the source give for TAGTGGGAAG here?
**A.** 0.935

**Q.** For TAGTGGGTAT, which switch fluorescence ratio is on record?
**A.** 1.01

**Q.** For TAGTGGTGCG, which switch fluorescence ratio is on record?
**A.** 1.01

**Q.** TAGTTATAGG was tested. Which switch fluorescence ratio did it give?
**A.** 1

**Q.** Which switch fluorescence ratio does the source give for TAGTTCAAAT here?
**A.** 1

**Q.** For TAGTTCACTT, which switch fluorescence ratio is on record?
**A.** 0.998

**Q.** For TAGTTGCAGG, which switch fluorescence ratio is on record?
**A.** 1.06

**Q.** Which switch fluorescence ratio does the source give for TAGTTGTCTA here?
**A.** 0.954

**Q.** Which switch fluorescence ratio does the source give for TAGTTTAGTC here?
**A.** 1.02

**Q.** How did the switch fluorescence ratio turn out when TAGTTTATCG was run?
**A.** 0.965

**Q.** With TAGTTTCTTT as the sequence, how does the switch fluorescence ratio read?
**A.** 0.972

**Q.** TATAAAGGTT was tested. Which switch fluorescence ratio did it give?
**A.** 0.961

**Q.** TATAACAGCG was tested. Which switch fluorescence ratio did it give?
**A.** 1.02

**Q.** Which switch fluorescence ratio does the source give for TATAAGATGA here?
**A.** 1.01

**Q.** How did the switch fluorescence ratio turn out when TATAAGATTC was run?
**A.** 1.05

**Q.** For TATAAGCGGC, which switch fluorescence ratio is on record?
**A.** 0.998

**Q.** Which switch fluorescence ratio does the source give for TATAAGTATG here?
**A.** 1.03

**Q.** For TATAATTAAG, which switch fluorescence ratio is on record?
**A.** 0.991

**Q.** With TATACATCGA as the sequence, how does the switch fluorescence ratio read?
**A.** 1.01

**Q.** TATACATGGG was tested. Which switch fluorescence ratio did it give?
**A.** 1.03

**Q.** How did the switch fluorescence ratio turn out when TATACCTATA was run?
**A.** 1.06

**Q.** With TATACGCCAG as the sequence, how does the switch fluorescence ratio read?
**A.** 0.994

**Q.** With TATACGTCTG as the sequence, how does the switch fluorescence ratio read?
**A.** 1.05

**Q.** With TATAGAAACT as the sequence, how does the switch fluorescence ratio read?
**A.** 1.03

**Q.** How did the switch fluorescence ratio turn out when TATAGAATCA was run?
**A.** 0.985

**Q.** How did the switch fluorescence ratio turn out when TATAGACGCA was run?
**A.** 1.09

**Q.** Which switch fluorescence ratio does the source give for TATAGAGCTT here?
**A.** 1.07

**Q.** Which switch fluorescence ratio does the source give for TATAGCTGCT here?
**A.** 1.06

**Q.** How did the switch fluorescence ratio turn out when TATAGGACCA was run?
**A.** 1.02

**Q.** TATAGGGCGA was tested. Which switch fluorescence ratio did it give?
**A.** 0.957

**Q.** Which switch fluorescence ratio does the source give for TATAGGGCGT here?
**A.** 1.03

**Q.** Which switch fluorescence ratio does the source give for TATAGGGCTT here?
**A.** 0.96

**Q.** How did the switch fluorescence ratio turn out when TATAGTATAT was run?
**A.** 1.14

**Q.** For TATAGTTCTC, which switch fluorescence ratio is on record?
**A.** 0.969

**Q.** With TATAGTTTTA as the sequence, how does the switch fluorescence ratio read?
**A.** 0.982

**Q.** TATATACGAT was tested. Which switch fluorescence ratio did it give?
**A.** 1.06

**Q.** TATATAGTG was tested. Which switch fluorescence ratio did it give?
**A.** 0.996

**Q.** TATATATAAT was tested. Which switch fluorescence ratio did it give?
**A.** 0.984

**Q.** With TATATATCGG as the sequence, how does the switch fluorescence ratio read?
**A.** 0.976

**Q.** TATATCGCCG was tested. Which switch fluorescence ratio did it give?
**A.** 0.928

**Q.** TATATGGACA was tested. Which switch fluorescence ratio did it give?
**A.** 0.992

**Q.** For TATATTATTT, which switch fluorescence ratio is on record?
**A.** 1

**Q.** For TATATTCTGC, which switch fluorescence ratio is on record?
**A.** 0.964

**Q.** How did the switch fluorescence ratio turn out when TATCAACGGA was run?
**A.** 1.04

**Q.** For TATCAATTG, which switch fluorescence ratio is on record?
**A.** 1.03

**Q.** Which switch fluorescence ratio does the source give for TATCACACGG here?
**A.** 1.03

**Q.** With TATCACAGGT as the sequence, how does the switch fluorescence ratio read?
**A.** 1.14

**Q.** TATCACGTAG was tested. Which switch fluorescence ratio did it give?
**A.** 1.07

**Q.** With TATCAGGACT as the sequence, how does the switch fluorescence ratio read?
**A.** 0.981

**Q.** TATCAGGGTG was tested. Which switch fluorescence ratio did it give?
**A.** 1.08

**Q.** Which switch fluorescence ratio does the source give for TATCAGTTCT here?
**A.** 1.01

**Q.** TATCATCCTA was tested. Which switch fluorescence ratio did it give?
**A.** 0.999
